Article PMC12136788
The list shows a part of the results.

T1: UNK ZnF1-3 (human, UniProt Q9C0B0 31-174)
T1 sequence: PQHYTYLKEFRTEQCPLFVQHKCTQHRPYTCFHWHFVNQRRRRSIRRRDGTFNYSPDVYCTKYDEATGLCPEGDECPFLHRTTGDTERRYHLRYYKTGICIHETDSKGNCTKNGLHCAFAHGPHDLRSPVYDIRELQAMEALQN

B1: chr21:34923711:34923712:+_ENSG00000159140_ENST00000381679|hu_hu|FALSE|FALSE (ssRNA)
RNA: GGGAGUUCUACAGUCCGACGAUCCAUCUGGGAGUCCAUGGUGUUGGACGCUAGCAUUUGGGAGUCCAUGGUGUUGGAUGCUAAUAUAUGGGUCUCCAUGGUGUUAGAAGCUAAUAUAUGGGAUUCUGGGGCCAUCAAGGGAUCCAACAGAGGAUUGAGCAUCA
B2: chr11:53094105:53094106:-_ENSMUSG00000020361_ENSMUST00000020630|mus_mus|FALSE|FALSE (ssRNA)
RNA: GGGAGUUCUACAGUCCGACGAUCCAAUUUCUUGAGUUUCUCACACUCUUGAGACAGUCGUAAUAAAGCACGAAUUUUAGAUUUUAUGUCUAGCUUGUAUUUCUUUCCAAAUUCUUCACAGAAGUGAUUUACCAACACCUCAUCCAACAGAGGAUUGAGCAUCA
B3: 69878041_69878161_674_3pUTR_ENSMUSG00000052981_ENSMUST00000065118|mouse|control|control (ssRNA)
RNA: GGGAGUUCUACAGUCCGACGAUCGGGGUGCUGCUGUUGCUGCUGCUGCUUGUGGCCGCUGCUCUUACCACCACCUUUGCCGCGCAGCGAUGCGCUCUGCUGGCCGCCGCCUCCGCCACGGUGGUUGUGGUGGUGCUUGGGGUCCAACAGAGGAUUGAGCAUCA
B4: chr1:154686295:154686296:-_ENSMUSG00000042772_ENSMUST00000043560|mus_hu|FALSE|FALSE (ssRNA)
RNA: GGGAGUUCUACAGUCCGACGAUCACAUUUCGUGCACACUCAGCGGGCUGGUGGAAUACUUACACCCUCUUGACAGCGAGAAACAGAAAAGAGGGCUGCCACCUGCAGGGGACUGUGUGGGCCAGUCCUGCAAACCCAACAUGCCAACAGAGGAUUGAGCAUCA
B5: chr16:18284709:18284710:-_ENSMUSG00000022718_ENSMUST00000009321|mus_hu|FALSE|FALSE (ssRNA)
RNA: GGGAGUUCUACAGUCCGACGAUCAACCACUGCCUCAAUUAUUGGAAAUCACAAUGCACUCAGCUUAAGUGACUGGCGACUAAGCGAGUCUGUCUUCAUGCCGGAGUGGCACCUUUCUUCUUCUACCUGAGGCGCCCGCGGGCUCAACAGAGGAUUGAGCAUCA
B6: chr8:117878989:117878990:-_ENSG00000164754_ENST00000297338|hu_hu|hu_hu_hu_mus_True|28_98 (ssRNA)
RNA: GGGAGUUCUACAGUCCGACGAUCCCAGAGGCCCUCGUUUACUGAGAACAAAAUGUGCGUAGAACAUUUUUCUUAUUUGCUAUGAAAUAAGAAGAAACCUGGAUCUCCCGCUGGGAGCGGGAGGGGUGGGUGGCCCGGGGAGGGCAACAGAGGAUUGAGCAUCA
B7: chr1:63355414:63355415:+_ENSMUSG00000027520_ENSMUST00000029025|mus_hu|FALSE|FALSE (ssRNA)
RNA: GGGAGUUCUACAGUCCGACGAUCUGUCACCCUCUUUCCAUGAAUUUUCUUUUUACUUUGACUUUCCAAAAGCUUAUUUCUAACUGAUUUUGGAGAGAUUUUGACAACAUCAUGAUUUAAAAAUGUUAGCUGGAAAUUUCUUUUCAACAGAGGAUUGAGCAUCA
B8: chr7:17002144:17002145:+_ENSMUSG00000059273_ENSMUST00000098789|mus_mus|FALSE|FALSE (ssRNA)
RNA: GGGAGUUCUACAGUCCGACGAUCUCUCUUGUCCUCCAGGGGGGUCCUGGACCUCCUCAGCCCCGUCGUCUUCCAGUUCACCUUCUUCCAACUCACCAUCUUCCCUUCCCCUCAGCAUGGCGCCCAAAAAAAGACAGAGCGAGACAACAGAGGAUUGAGCAUCA
B9: chr10:71978566:71978567:-_ENSG00000180817_ENST00000373232|hu_hu|FALSE|FALSE (ssRNA)
RNA: GGGAGUUCUACAGUCCGACGAUCUAAAGGGUCCUUUGUAGCAAUCUCCAUUUUUGCAUUAGACCAGCGUGGUACUUCAACUACCAUGUGAAACACAUCCUUAUCUGCAUAAAUUGGAAUAUCAUGAAAUGGAGAUAUAUAUUGCAACAGAGGAUUGAGCAUCA
B10: chr3:151883435:151883436:+_ENSMUSG00000028034_ENSMUST00000166984|mus_hu|FALSE|FALSE (ssRNA)
RNA: GGGAGUUCUACAGUCCGACGAUCCAUCUCUCCAUUUCUUCCUAUUACAAUGCCAACAGCAAAUCUUGGAAUGGGGACAUCUAUCCCUUCAUUUCCUCCUAUUCUUGACCCAUACUCAUUCCGAACUUCUCUGAAACCGCCUUGCAACAGAGGAUUGAGCAUCA
B11: chr8:127356239:127356240:+_ENSMUSG00000036913_ENSMUST00000167588|mus_hu|FALSE|FALSE (ssRNA)
RNA: GGGAGUUCUACAGUCCGACGAUCGCCCAGGCUCAAUCCGGAAAGCACCACCCUCCUCAAACUUGGUGGGCCAUAGGGCACCUAGGGCGCUGUUGCAACUACAAAGUACAUAUCAGGCUGAAGAUGCAGCCUGGAAAUAUAUACCAACAGAGGAUUGAGCAUCA
B12: 86284157_86292676_1654_3pUTR_ENSG00000135018_ENST00000376395|human|control|control (ssRNA)
RNA: GGGAGUUCUACAGUCCGACGAUCGCAGACAACAUGUUUUGCAUCAGUUGUGGGUUUUCAGUUAUUUGUUGCAACAAGCUCUGCAUUCCUGGUGUGUUGAACAUACUAGCUCCUACUCCAGGCACCAAAUUUGGCGCAGUAGUACAACAGAGGAUUGAGCAUCA
B13: chr5:69958400:69958401:+_ENSMUSG00000029208_ENSMUST00000154728|mus_mus|FALSE|FALSE (ssRNA)
RNA: GGGAGUUCUACAGUCCGACGAUCGUCAUAAAAAUCUACCACAAUUUCAUUCAAAGGGAAGAGAUAUUUAAGCAUAACUCUAUUUUCAUCAAUAAAAGUCAUAUUUUUCUGAAUUGCUCUUCGUGCCUGACAAAGCGCCAUUAUCAACAGAGGAUUGAGCAUCA
B14: chr1:109605286:109605287:-_ENSG00000197780_ENST00000461096|hu_mus|hu_hu_hu_mus_True|38_58 (ssRNA)
RNA: GGGAGUUCUACAGUCCGACGAUCAAGUUUCAGAGUAACAUUCAGUAACCUCUUUAAAUGCAAUUAUCCUUAUUAUAAACUAAGGGCAAUAAUAAUUUAAUACAUAGAGUGAACUACACACAAAGCCUGAACCGCGAAAAUGGUCAACAGAGGAUUGAGCAUCA

molecular target: T1, UNK ZnF1-3; experiment: nsRBNS (natural sequence RNA bind-n-seq); RBNS binding buffer (assumed for nsRBNS): 25 mM Tris pH 7.5, 150 mM KCl, 3 mM MgCl2, 0.01% Triton X-100, 500 ug/ml BSA, 20 U/ml SUPERase-In, 4 C; UNK is unkempt and MSI1 is Musashi-1; names of the RNAs are library labels; protein concentration not given here; high values mean tight binding

Row | Binder | binding signal
1 | B1 | 1.73 enrichment R
2 | B2 | 0.621 enrichment R
3 | B3 | 0.477 enrichment R
4 | B4 | 0.675 enrichment R
5 | B5 | 0.958 enrichment R
6 | B6 | 1.27 enrichment R
7 | B7 | 0.746 enrichment R
8 | B8 | 1.12 enrichment R
9 | B9 | 0.536 enrichment R
10 | B10 | 0.952 enrichment R
11 | B11 | 1.01 enrichment R
12 | B12 | 0.776 enrichment R
13 | B13 | 0.84 enrichment R
14 | B14 | 0.994 enrichment R
